# Results: the supplement of paper PMC8728848
# The list shows a part of the results.
# B1: Gal 8 (Homo sapiens) (protein)
# chain: MLSLNNLQNIIYNPVIPYVGTIPDQLDPGTLIVICGHVPSDADRFQVDLQNGSSVKPRADVAFHFNPRFKRAGCIVCNTLINEKWGREEITYDTPFKREKSFEIVIMVLKDKFQVAVNGKHTLLYGHRIGPEKIDTLGIYGKVNIHSIGFSFSSDLQSTQASSLELTEISRENVPKSGTPQLQTVSPSWDLQGHGSETFCSVLWTRVFLEIAFCRPIGLTVASFQSLPFAARLNTPMGPGRTVVVKGEVNANAKSFNVDLLAGKSKDIALHLNPRLNIKAFVRNSFLQESWGEEERNITSFPFSPGMYFEMIIYCDVREFKVAVNGVHSLEYKHRFKELSSIDTLEINGDIHLLEVRSW
# How the values were obtained:
# Test in all cases: glycan array binding signal (z-score within array); higher = stronger binding
# Conditions in all cases: glycan notation: IUPAC condensed, linker removed
# Fuc(a1-4)GlcNAc = molecular target: Fuc(a1-4)GlcNAc
# Summary of the method: (§1)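 The binding signal is a Z-score computed within each array. Data were drawn from 3228 arrays in the Consortium for Functional Glycomics database, restricted to those with a known protein sequence. Scores were averaged over arrays of the same protein sequence at different concentrations or buffers, and over linkers, and negative values can be taken as non-binding.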
# Fuc(b1-3)GlcNAc = molecular target: Fuc(b1-3)GlcNAc
# Summary of the method: as §1
# Gal(a1-2)Gal = molecular target: Gal(a1-2)Gal
# Summary of the method: as §1
# Gal(a1-3)Gal = molecular target: Gal(a1-3)Gal
# Summary of the method: as §1
# Gal(a1-3)Gal(b1-3)GlcNAc = molecular target: Gal(a1-3)Gal(b1-3)GlcNAc
# Summary of the method: as §1
# [1] = molecular target: Gal(a1-3)Gal(b1-3)GlcNAc(b1-2)Man
# Summary of the method: as §1
# [2] = molecular target: Gal(a1-3)Gal(b1-3)GlcNAc(b1-2)Man(a1-3)[Gal(a1-3)Gal(b1-3)GlcNAc(b1-2)Man(a1-6)]Man(b1-4)GlcNAc(b1-4)GlcNAc
# Summary of the method: as §1
# [3] = molecular target: Gal(a1-3)Gal(b1-3)GlcNAc(b1-3)GalNAc
# Summary of the method: as §1
# [4] = molecular target: Gal(a1-3)Gal(b1-3)GlcNAc(b1-6)GalNAc
# Summary of the method: as §1
# [5] = molecular target: Gal(a1-3)Gal(b1-3)[Fuc(a1-4)]GlcNAc(b1-2)Man(a1-3)[Gal(a1-3)Gal(b1-3)[Fuc(a1-4)]GlcNAc(b1-2)Man(a1-6)]Man(b1-4)GlcNAc(b1-4)GlcNAc
# Summary of the method: as §1
# Gal(a1-3)Gal(b1-4)Glc = molecular target: Gal(a1-3)Gal(b1-4)Glc
# Summary of the method: as §1
# Gal(a1-3)Gal(b1-4)GlcNAc = molecular target: Gal(a1-3)Gal(b1-4)GlcNAc
# Summary of the method: as §1
# [6] = molecular target: Gal(a1-3)Gal(b1-4)GlcNAc(b1-2)Man
# Summary of the method: as §1
# [7] = molecular target: Gal(a1-3)Gal(b1-4)GlcNAc(b1-2)Man(a1-3)[Gal(a1-3)Gal(b1-4)GlcNAc(b1-2)Man(a1-6)]Man(b1-4)GlcNAc(b1-4)GlcNAc
# Summary of the method: as §1
# [8] = molecular target: Gal(a1-3)Gal(b1-4)GlcNAc(b1-3)GalNAc
# Summary of the method: as §1
# [9] = molecular target: Gal(a1-3)Gal(b1-4)GlcNAc(b1-6)GalNAc
# Summary of the method: as §1
# [10] = molecular target: Gal(a1-3)Gal(b1-4)[Fuc(a1-3)]GlcNAc
# Summary of the method: as §1
# [11] = molecular target: Gal(a1-3)Gal(b1-4)[Fuc(a1-3)]GlcNAc(b1-2)Man(a1-3)[Gal(a1-3)Gal(b1-4)[Fuc(a1-3)]GlcNAc(b1-2)Man(a1-6)]Man(b1-4)GlcNAc(b1-4)GlcNAc
# Summary of the method: as §1
# Gal(a1-3)GalNAc = molecular target: Gal(a1-3)GalNAc
# Summary of the method: as §1
# [12] = molecular target: Gal(a1-3)[Gal(a1-4)]Gal(b1-4)GlcNAc
# Summary of the method: as §1
# [13] = molecular target: Gal(a1-4)Gal(b1-3)GlcNAc(b1-2)Man(a1-3)[Gal(a1-4)Gal(b1-3)GlcNAc(b1-2)Man(a1-6)]Man(b1-4)GlcNAc(b1-4)GlcNAc
# Summary of the method: as §1
# Gal(a1-4)Gal(b1-4)Glc = molecular target: Gal(a1-4)Gal(b1-4)Glc
# Summary of the method: as §1
# Gal(a1-4)Gal(b1-4)GlcNAc = molecular target: Gal(a1-4)Gal(b1-4)GlcNAc
# Summary of the method: as §1
# [14] = molecular target: Gal(a1-4)Gal(b1-4)GlcNAc(b1-2)Man(a1-3)[Gal(a1-4)Gal(b1-4)GlcNAc(b1-2)Man(a1-6)]Man(b1-4)GlcNAc(b1-4)GlcNAc
# Summary of the method: as §1
# [15] = molecular target: Gal(a1-4)Gal(b1-4)GlcNAc(b1-3)Gal(b1-4)Glc
# Summary of the method: as §1
# Gal(a1-4)GlcNAc = molecular target: Gal(a1-4)GlcNAc
# Summary of the method: as §1
# Gal(a1-6)Glc = molecular target: Gal(a1-6)Glc
# Summary of the method: as §1
# Gal(b1-2)Gal = molecular target: Gal(b1-2)Gal
# Summary of the method: as §1
# Gal(b1-3)Gal = molecular target: Gal(b1-3)Gal
# Summary of the method: as §1
# Gal(b1-3)Gal(b1-4)GlcNAc = molecular target: Gal(b1-3)Gal(b1-4)GlcNAc
# Summary of the method: as §1
# Gal(b1-3)GalNAc = molecular target: Gal(b1-3)GalNAc
# Summary of the method: as §1
# [16] = molecular target: Gal(b1-3)GalNAc(a1-3)[Fuc(a1-2)]Gal(b1-4)Glc
# Summary of the method: as §1
# [17] = molecular target: Gal(b1-3)GalNAc(a1-3)[Fuc(a1-2)]Gal(b1-4)GlcNAc
# Summary of the method: as §1
# Gal(b1-3)GalNAc(b1-3)Gal = molecular target: Gal(b1-3)GalNAc(b1-3)Gal
# Summary of the method: as §1
# [18] = molecular target: Gal(b1-3)GalNAc(b1-3)Gal(a1-4)Gal(b1-4)Glc
# Summary of the method: as §1
# [19] = molecular target: Gal(b1-3)GalNAc(b1-4)Gal(b1-4)Glc
# Summary of the method: as §1
# [20] = molecular target: Gal(b1-3)GalNAc(b1-4)[Neu5Ac(a2-3)]Gal(b1-4)Glc
# Summary of the method: as §1
# Gal(b1-3)GlcNAc = molecular target: Gal(b1-3)GlcNAc
# Summary of the method: as §1
binder,measurement,setting,value
B1,glycan array binding signal (z-score),Fuc(a1-4)GlcNAc,-0.061
same,glycan array binding signal (z-score),Fuc(b1-3)GlcNAc,-0.402
same,glycan array binding signal (z-score),Gal(a1-2)Gal,-0.328
same,glycan array binding signal (z-score),Gal(a1-3)Gal,-0.358
same,glycan array binding signal (z-score),Gal(a1-3)Gal(b1-3)GlcNAc,-0.25
same,glycan array binding signal (z-score),[1],-0.165
same,glycan array binding signal (z-score),[2],-0.354
same,glycan array binding signal (z-score),[3],-0.354
same,glycan array binding signal (z-score),[4],-0.295
same,glycan array binding signal (z-score),[5],-0.352
same,glycan array binding signal (z-score),Gal(a1-3)Gal(b1-4)Glc,-0.093
same,glycan array binding signal (z-score),Gal(a1-3)Gal(b1-4)GlcNAc,-0.309
same,glycan array binding signal (z-score),[6],-0.252
same,glycan array binding signal (z-score),[7],0.506
same,glycan array binding signal (z-score),[8],-0.316
same,glycan array binding signal (z-score),[9],-0.349
same,glycan array binding signal (z-score),[10],-0.4
same,glycan array binding signal (z-score),[11],-0.356
same,glycan array binding signal (z-score),Gal(a1-3)GalNAc,-0.387
same,glycan array binding signal (z-score),[12],-0.39
same,glycan array binding signal (z-score),[13],-0.352
same,glycan array binding signal (z-score),Gal(a1-4)Gal(b1-4)Glc,-0.254
same,glycan array binding signal (z-score),Gal(a1-4)Gal(b1-4)GlcNAc,-0.284
same,glycan array binding signal (z-score),[14],-0.357
same,glycan array binding signal (z-score),[15],0.691
same,glycan array binding signal (z-score),Gal(a1-4)GlcNAc,-0.364
same,glycan array binding signal (z-score),Gal(a1-6)Glc,-0.035
same,glycan array binding signal (z-score),Gal(b1-2)Gal,-0.353
same,glycan array binding signal (z-score),Gal(b1-3)Gal,-0.076
same,glycan array binding signal (z-score),Gal(b1-3)Gal(b1-4)GlcNAc,-0.178
same,glycan array binding signal (z-score),Gal(b1-3)GalNAc,-0.254
same,glycan array binding signal (z-score),[16],0.682
same,glycan array binding signal (z-score),[17],1.59
same,glycan array binding signal (z-score),Gal(b1-3)GalNAc(b1-3)Gal,-0.297
same,glycan array binding signal (z-score),[18],0.019
same,glycan array binding signal (z-score),[19],-0.151
same,glycan array binding signal (z-score),[20],0.192
same,glycan array binding signal (z-score),Gal(b1-3)GlcNAc,-0.24
